Over roughly 4,500 sequences, “median log2 fold change of GCK-ALFA target abundance (FLAG IP / Myc IP barcode read proportion)” has its median near 0.078; the lowest 2% begin near -0.6. The list shows a part of the results.
B1: GBRAP_18_5404 (protein)
chain: SDETFQAAWAALSPELQDLVAEAAYDALSEEDEEERIEILVDTLVRIAETASPEEVHNALLVLLLSVVSRREEALRIVERFVARRPEMRPVAEAALAELE
B2: GBRAP_11_2935 (protein)
chain: EKEKLKKAKEYAKKAAELIKKIIEAGKLDEELAKEAKELVEKAAKLAKELGLEEEKKDLELAAELIEEIIKAGKLDKTKAAAAKALVFDVAHELEEELEK
B3: GBRAP_74_6518 (protein)
chain: MEELLKELEKAAEEGDAEKAVELARKIVKEGDLETIERAARIMVEFVDKHLDELSPEELEKVSEALAELADELMLRGGDPETVKAVAEAAVRAEEKLAAL
B4: GBRAP_160_4775 (protein)
chain: SEKTEELKKEIKEAAEEIKEAIDTLSPEEALIVVRGETGDIIQTTFELGFDNDELEEKIAEIMDELVKEMEKNKNASPEVKKKIVDEYAKKAIETLEKLS
B5: GBRAP_43_5784 (protein)
chain: SAELVAGALDTAELLFQEPSVSQEQKVAAAIAAFDLAADEGVADREAIRAVVEAAAASLDKASLERLAAHARELAEAHPELAAVFREAAALLEAAIAALE
B6: GBRAP_184_5305 (protein)
chain: MVVEVTIEAETAEEAIAQINAAAEQARAAGAKLRLYLLLKNVDVEGFRRIAELIKRLKEEGIIEEAIVEVENDLSEEEIDELIKIADEAGVTLVIALPEE
B7: GBRAP_39_5668 (protein)
chain: EKEEEMELEISYLEAIAAKELYETGKSLDEAYAEAKKILTAYAKEHPELKELVDELIKLADEKGEEAKLVAIGIAVLIKEGTPLEEIKEKIETAVEYFKS
B8: GBRAP_160_4159 (protein)
chain: SEEVEKLIKEIDEIFEETKKLIEGESIEQRAVIIAGGMGEIIMLLEESPVVSEEVVDLAVELEDELVETLKANPDLTLEEIKKLIDEVRDKIIAAIKKSA
B9: GBRAP_43_5763 (protein)
chain: SKELVDGAFDFALLALEEPNIPEETKVKAIIAAFELAADEGYVNPEEVEAVVEKAAETLSAEELKKILKALKEIAKKYPELKETLEKAIKKLEEAIKKKE
B10: GBRAP_52_5992 (protein)
chain: MREEAKKVAEEAVKLMLEGKEEEAEKLLKEVVETKSEEFLKLVAEELAEMAKKADPETRDAIVEVAIMLEDIALEAGFDEAEADDGLARVAAAAYEALQA
B11: GBRAP_43_5771 (protein)
chain: SKELVEGALDFALLAAESPEIPEETKVKAIIAAFELAADEGYADRELVLKVVKAAAKNLSAEELKKILEKLKEIAKEHPELKEVFEEAAKILEKAIKEKE
B12: GBRAP_83_6975 (protein)
chain: AEEIVVAAPADRVEEAVEIAIDLAKEEGKKVTLEILTTPEQRERVLEAVERLLKEVPNIEIVVVLRGATKEEAEELEKELKEIAKELGVNADIEVLIEEP
B13: GBRAP_160_4052 (protein)
chain: EEGKKELLESVEEAEELILETLREDGVEAAIVVADGEFGSIIMEAAEDENASEELEEELDKIRDELVARLKEARDASLEEQEAIIKEAAEEAKKKIEELY
B14: GBRAP_186_5386 (protein)
chain: SEEAEKKLDEVIDEAEAKGYRVIVAYLENKSVEETKAAIAREADAVAALAKETGEKYALIVYVTTKKEDIAEIQAYAAELNKKYLAETGVEVRAVVEDSE
B15: GBRAP_9_7131 (protein)
chain: REELVEKLAEIVKEMIEDLKEAIPELTEEQAEKFKKRVEELKKELLADKSATKEEIAERFKKLVKEIRDEVEKIVSPELAKIADAIALTAIEEIDEAVEE
B16: GBRAP_160_4742 (protein)
chain: KEELEKLKKEIEEIFKEGIELLKESEKEEALTIVRGIMGDVIMEVMSSEAASDELEEKIAEIADKAIEEVEKNKDAPIEKVIEIVEKAREEILKLIEEEI
B17: GBRAP_160_4538 (protein)
chain: NPKVEELIKDIDEEKEFIKSLVDEISVEELINAIKVEVGSLILYGEELGVISDELADKFDEIVEETIKKLKENENASNEEKKEIINEAYEKMKKALKESA
B18: GBRAP_139_3722 (protein)
chain: AALEAAIAEARALVAEHRDDLELLARKLAELIASVDDDTALAIARAAGEALKDWSWEEWERFIELLEEELKKLGLDEDTILAIAGELEAVAAKHLIEKEK
B19: GBRAP_160_4766 (protein)
chain: KEELKELLKEVKEEFDEAIEMLKESPASEAPTIIAGTMGSVIMLVESSPAVSEELEEEIAEIMDEAEARAAALKDAPVEEHIKLLEEAREKVTELIEKAI
B20: GBRAP_83_6955 (protein)
chain: MITVVASSKPESIRSSVEAAIDLHKEYGEKVEIEILLTKENAPAALEALKKLIDAGVEAEVILVTKESDKEAAEKLAEEIKKYAKEKGVNVKVELIVEEE
B21: GBRAP_160_3998 (protein)
chain: SEKLAALKAEIAAILAETLELARGEDAAERLAVVRVMGGQILLTLEESGIVSDEALAAVDAILDATAAEVAANPDLTDAELAALLDATLARINAVLEEHS
B22: GBRAP_128_3513 (protein)
chain: SMAAAVAQAEALMAAIGAADAATAAALTAELVDLIASADPETAAAIADKAIELLPTLSAEKLDVVADTLRARRPALDPEKANLVADIEVEALNLAEELEE
B23: GBRAP_160_4233 (protein)
chain: SEVVEKLVEIFREEFLEALELIKGESEEEKKVILDVTVGRIILEAEEIEGTTDEMEEVVDKMAEKMAKELLKASDKSEEEKRALIEKKAAELRKELEKLA
B24: GBRAP_14_3769 (protein)
chain: MEEKIKILEEAAAEVVALLAELAPEKAAAFAAAVAAITAEAIERIKETGDAEEVMEEAQARLVAAITEILAGQPAETVAQAQAVVQVTFGQAILEIDELE
B25: GBRAP_80_6803 (protein)
chain: AEERLAAALAEIEALDPELAERVRRIIELARELGVPVETLAEYAEAIAELLKVDKEEARELVDELEELLEEERERGDTANAEATLRVYAGEALLKVEELE
B26: GBRAP_160_3978 (protein)
chain: SEEIEKLKKEIKELAEEAKELIEGESYEERLTIVRVMFGEILMLLMSNENVSDETEEEVAKVGDETIAYLEANPDLTEEEIKELIKEAEKKIFEILEKNE
B27: GBRAP_39_5703 (protein)
chain: TAEEEAEETFSYLEALGAKYAVERGLDMEEVRRETERLAEEVIARHPELAPLVRELLALARERGDTAVLAAYGLLLRAREGEPLEKIRRDMELLIAHLKS
B28: GBRAP_160_4369 (protein)
chain: SSALKELAEEIEELREEFEEEAKDLSPAEVVQLSLGVLAEVAALVWENEAVSEETEDKIMEIIDAARAELRANADAPPEEIVAITLEAFDKIIELVKEEI
B29: GBRAP_16_4996 (protein)
chain: DELLALTEGAAEFAEQIADALEGGDPELVKLAKELAKELKRAAKLIKEGGPKEEILKELERALKLAEELAKKLAKTDAEGAAAAKTLADRIKEAIKLAKK

molecular target: GABARAP, O95166; assay: median log2 fold change of GCK-ALFA target abundance (FLAG IP / Myc IP barcode read proportion) (log2 ratio); each designed protein is fused to an ALFA-tag nanobody in HEK293 cells to bring the named protein to FLAG-tagged glucokinase (GCK); Myc marks an untargeted standard; higher = target protein stabilised (more abundant); details: target protein: 3xFLAG-MCP-GCK-ALFA reporter; HEK293 landing pad (RPLP)
Sequence (O95166 whole entry, the tested form may be a part): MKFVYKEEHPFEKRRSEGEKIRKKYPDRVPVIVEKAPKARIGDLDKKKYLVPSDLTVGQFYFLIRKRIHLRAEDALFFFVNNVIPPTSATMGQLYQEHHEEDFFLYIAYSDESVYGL
In short: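 HEK293 landing-pad cells received a recombined binder library fused to the ALFA nanobody and were induced with 2 μg mL^−1 doxycycline, then transfected with a plasmid encoding a FLAG-tagged target and a Myc-tagged standard. Lysates were collected after 48 h for anti-FLAG and anti-Myc immunoprecipitation, and the circular RNA barcodes were reverse transcribed, amplified and sequenced. Target abundance for each binder is the median log2 ratio of FLAG to Myc barcode read proportions. Barcodes had to reach a proportion of at least 10^−7 in both replicates, each binder needed at least 3 barcodes per replicate, a pseudocount of 10^−6 was applied, and the two replicates were pooled.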

| Binder | median log2 fold change |
| --- | --- |
| B1 | -0.414 |
| B2 | 0.441 |
| B3 | 0.127 |
| B4 | 0.23 |
| B5 | 0.247 |
| B6 | -0.0724 |
| B7 | 0.303 |
| B8 | 0.106 |
| B9 | 0.0293 |
| B10 | -0.129 |
| B11 | 0.253 |
| B12 | 0.0242 |
| B13 | -0.0679 |
| B14 | 0.175 |
| B15 | 0.142 |
| B16 | 0.15 |
| B17 | -0.26 |
| B18 | -0.357 |
| B19 | 0.275 |
| B20 | -0.00594 |
| B21 | -0.533 |
| B22 | 0.00691 |
| B23 | -0.402 |
| B24 | 0.0783 |
| B25 | -0.212 |
| B26 | 0.206 |
| B27 | 0.229 |
| B28 | -0.0912 |
| B29 | 0.528 |

Reference: the supplement of paper PMC12632987
